The record followed here is PubChem BioAssay AID2551 (National Center for Advancing Translational Sciences (NCATS), 2010).

Values joined by “and” are separate entries in the source; they are usually repeats but may differ in a detail not shown here. Equal entries are not always repeated. Screen size: about 310,000 compounds; about 17,000 (5.5%) were called active. Another 11% or so got no clear call; they are omitted. Calls follow the shape of the dose curve; as a rule, active = well fitted inhibition curve with a large enough effect; inconclusive = small, poorly fitted or top-dose-only effect, or effect the other way; inactive = no such curve, though single readings can be large or run the other way. The list shows a part of the results, in another mix than the full data. The source holds several records for some structures; these can differ, active in one and inactive in another.
% is scaled to controls: 0 for no effect and ±100 for the full control effect; potency is read from the fitted curve at half-maximal effect.

Sequence of UniProt P51450 (P51450 whole entry, looked up, the tested form may be a part): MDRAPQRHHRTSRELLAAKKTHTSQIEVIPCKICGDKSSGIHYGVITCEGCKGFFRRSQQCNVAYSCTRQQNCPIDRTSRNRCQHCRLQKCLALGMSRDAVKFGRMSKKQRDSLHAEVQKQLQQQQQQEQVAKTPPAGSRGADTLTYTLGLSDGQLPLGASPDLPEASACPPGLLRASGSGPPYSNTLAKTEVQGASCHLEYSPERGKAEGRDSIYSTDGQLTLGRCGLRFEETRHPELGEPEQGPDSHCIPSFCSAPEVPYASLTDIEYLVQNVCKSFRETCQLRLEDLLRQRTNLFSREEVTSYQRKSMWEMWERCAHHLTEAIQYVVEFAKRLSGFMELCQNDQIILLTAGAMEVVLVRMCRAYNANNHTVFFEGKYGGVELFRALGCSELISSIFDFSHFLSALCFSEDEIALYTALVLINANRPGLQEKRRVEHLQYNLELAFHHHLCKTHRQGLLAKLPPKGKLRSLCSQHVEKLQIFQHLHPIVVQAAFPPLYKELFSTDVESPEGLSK

The target in the experiment is Nuclear receptor ROR-gamma (Mus musculus) (UniProt P51450). The experiment can be described thus: qHTS for inhibitors of ROR gamma transcriptional activity. Also: nearly all actives have a fitted effect of over 60% in size. As to conditions: Drosophila S2 Gal4-RORgamma UAS-luciferase reporter, 20 h; series mostly up to 53.6 µM; activity change, negative = inhibition: at the top concentration. In a few lines:
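Luminescence from a UAS-regulated Photinus luciferase reporter in stably transfected Drosophila Schneider cells is measured; decreased signal marks ROR gamma inhibition. Fusion expression is induced by 700 uM copper sulfate for 20 hr.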
In general terms: In qHTS, concentration-response curves come from the screen itself.
Take `Cc1cc(N2CCOCC2)nc2ccc(NC(=S)NCc3ccc4c(c3)OCO4)cc12`: the Potency is active: 22.4 µM.
In the case of `COc1ccc(C2CC(=O)Oc3ccc(C(C)(C)C)cc32)cc1` (stereo not drawn), the “activity change, negative = inhibition” value was inactive: 19.3%.
Consider `COc1cccc([C@@H]2Oc3ccc(OC)cc3C(=O)[C@H]2O)c1`, for which the Potency is active: 12.6 µM.
Regarding `C[C@]12C=CC(=O)C=C1CC[C@@H]1[C@@H]2C(=O)C[C@@]2(C)[C@H]1CC[C@]2(O)C(=O)CO`, the “activity change, negative = inhibition” value was inactive: 4.18%.
On to `CC(C)[C@H](NC(=O)N1CCn2c1nc1ccccc12)C(=O)N[C@@H](C(=O)O)c1ccccc1`, for which the “activity change, negative = inhibition” value was inactive: -2.56%.
Regarding `Cc1nc2ccccn2c1C(=O)/C=C/c1ccc(F)cc1`, the Potency was active: 8.91 µM.
As to `S=C(Nc1ccc(Oc2ccccc2)cc1)NC1CCCC1`, the Potency was active: 5.01 µM.
On to `Nc1nc2ccccc2n1C(=O)c1ccco1`, for which the Potency is active: 11.2 µM.
`C#CCNC(=O)C1=C[C@@H](c2ccc(Br)cc2)C[C@@H](OCc2ccc(CO)cc2)O1`: the “activity change, negative = inhibition” value was inactive: 38.6%.
`CC[C@H](C)C(=O)O[C@H]1CCC=C2C=C[C@H](C)[C@H](CC[C@@H]3C[C@H](O)CC(=O)O3)[C@H]21`: the “activity change, negative = inhibition” value is inactive: 23.8%.
On to `NNC(=O)[C@@H]1C[C@@H]1c1ccccc1`, for which the activity change, negative = inhibition was inactive: -6.66% [at 10 µM].
As for `C[C@H]1C[C@H]2[C@@H]3CCC4=CC(=O)C=C[C@]4(C)[C@@]3(Cl)[C@@H](O)C[C@]2(C)[C@@]1(O)C(=O)CO`, the “activity change, negative = inhibition” value is inactive: -23.4%.
For `NC(=S)N/N=C/c1cn(-c2ccccc2)nc1-c1cccnc1`, the Potency is active: 6.31 µM.
For `CC1CCN(CCNC(=O)c2ccc3c(=O)n(Cc4ccc(Cl)cc4)c(=S)[nH]c3c2)CC1`, the Potency was active: 11.2 µM.
In the case of `C[C@@H]1CC[C@@]2(O[C@H](CCO)C[C@H](O)[C@H]2O)O1`, the “activity change, negative = inhibition” value is inactive: -4.8%.
As for `Cc1cc(OC(=O)c2c(C)cc(O)cc2O)cc(O)c1C(=O)O`, the “activity change, negative = inhibition” value was inactive: -38%.
In the case of `O=C(COc1ccc(Cl)cc1Cl)NNC(=S)NC(=O)c1ccco1`, the Potency was active: 11.2 µM.
Turning to `S=C1NC[C@H](Cc2ccccc2)N1CCc1cccc2ccccc12`, the Potency is active: 1 µM.
Take `CCCCC[C@H](O)/C=C/[C@@H]1[C@@H](C/C=C\CCCC(=O)O)[C@H]2CO[C@@H]1C2`: the “activity change, negative = inhibition” value is inactive: 0.827%.
`COC(=O)[C@@H]1CC[C@H](C)[C@@H](c2ccc(C)cc2)N1C(=O)c1ccc(/C=N\O[C@@H](C)c2cn([C@H](CO)Cc3ccccc3)nn2)cc1`: the activity change, negative = inhibition was inactive: -18.6% [at 10 µM] and inactive: -4.03% [at 10 µM].
For `CC[C@H](C)[C@@H](NC(=O)O[C@@H]1C(=O)c2cc(Br)ccc2O[C@H]1c1ccc2c(c1)OCO2)C(=O)OC`, the “activity change, negative = inhibition” value was inactive: 28.7%.
As to `COc1cc(C2c3cc4c(cc3C(OC3OC5COC(C)O[C@@H]5C(O)C3O)C3COC(=O)C23)OCO4)cc(OC)c1O` (stereo partly drawn), the “activity change, negative = inhibition” value was inactive: -31.9%.
In the case of `CSc1ccc(/C=N/Nc2nc(C)cc(C)n2)cc1`, the Potency is active: 11.2 µM.
With `CCC1=C(OC(=O)N(CC)CC)N2C(=O)OC(=NCc3ccccc3)[C@]2(C)[C@H]2C1=CC[C@H]1C(=O)NC(=O)[C@H]12`, the “activity change, negative = inhibition” value was inactive: 3.8%.
The same measure, in the same setting: the value for `COc1ccc(C2/C=C\CN(C(=O)CC(C)C)CC(=O)N2Cc2ccc(F)cc2)cc1` (stereo not drawn) was inactive: 27.7%.
In the case of `Clc1cccc(Cl)c1CO/N=C/c1c(-c2ccccc2)nc2n1CCS2`, the Potency is active: 7.08 µM.
Turning to `CCOC(=O)[C@@H]1[C@H]2COc3ccccc3[C@H]2N2C(=O)N(c3ccc(F)cc3)C(=O)[C@]12C`, the “activity change, negative = inhibition” value is inactive: 2.15%.
In the case of `COc1cc2c(cc1NC(=S)NC(=O)/C=C/c1ccco1)oc1ccccc12`, the Potency is active: 3.16 µM.
Consider `CC1=C(C(=O)OCc2ccccc2)C(c2ccc(C(C)(C)C)cc2)NC(=O)N1CCCCCC(=O)O` (stereo not drawn), for which the “activity change, negative = inhibition” value is inactive: -0.537%.
The same measure, in the same setting: the value for `COC(=O)[C@H](C)[C@H]1C[C@]1(C)[C@H](NC(=O)OCc1ccccc1)c1ccccc1` was inactive: 13.7%; that for `COC1=C(OC)C(=O)C(CCCCCCCCCCO)=C(C)C1=O` was inactive: -17.5% [at 10 µM].
For the molecule `COC(=O)c1ccc(NC(=S)Nc2ccccn2)cc1`, the Potency is active: 1 µM.
Same read-out and setting: in the case of `CCCNC(=S)NNC(=O)c1cc(C2CC2)nc2ccccc12` it was active: 11.2 µM.
Regarding `C#CCNC(=O)C1=C[C@H](c2csc3ccccc23)C[C@H](OCc2ccc(CO)cc2)O1`, the “activity change, negative = inhibition” value was inactive: 28.1%.
As for `CCn1c(-c2ccccc2)c(C(=O)CCl)c2ccccc21`, the Potency was active: 11.2 µM.
Take `C[C@]12C(=O)N(c3ccc(C(F)(F)F)cc3)C(=O)N1[C@@H]1c3ccccc3OC[C@@H]1[C@H]2c1ccccc1`: the “activity change, negative = inhibition” value is inactive: -9.06%.
Take `O=c1oc2ccccc2cc1-c1nc(-c2ccccc2)no1`: the Potency is active: 11.2 µM.
`CCCCCOc1ccc(CSCCNC(=S)Nc2ccccc2)cc1`: the Potency is active: 3.16 µM.
With `COCCNC(=O)[C@H](C)[C@H]1C[C@]1(C)[C@H](NC(=O)OCc1ccccc1)c1ccccc1`, the “activity change, negative = inhibition” value is inactive: -21.4%.
In the case of `COc1ccc(C(=O)NC2=NCCS2)cc1S(=O)(=O)N1CCCCC1C` (stereo not drawn), the Potency was active: 14.1 µM.
Turning to `CSc1ccc(NC(=O)Nc2cc(C)ccn2)cc1`, the Potency is active: 8.91 µM.
Consider `CCOc1ccc(C(=O)NC(=S)Nc2cccnc2)cc1[N+](=O)[O-]`, for which the Potency is active: 14.1 µM.
As to `Cc1cc(Cl)ccc1NC(=S)Nc1cccnc1`, the Potency was active: 12.6 µM.
As for `CC1=NN(c2nc(-c3ccc(Cl)cc3)cs2)C(=O)C1`, the Potency was active: 10 µM.
Regarding `NC(=S)N/N=C/c1ccc(Br)o1`, the Potency was active: 3.55 µM.
Still for that read-out and setting: the value for `C=CC[C@@H]1/C=C(\C)C[C@H](C)C[C@H](OC)[C@H]2O[C@@](O)(C(=O)C(=O)N3CCCC[C@H]3C(=O)O[C@H](/C(C)=C/[C@@H]3CC[C@@H](O)[C@H](OC)C3)[C@H](C)[C@@H](O)CC1=O)[C@H](C)C[C@@H]2OC` was “inactive”.
Same read-out and setting: the value for `Cc1ccc(N2CN(Cc3ccco3)CNC2=S)cc1` was active: 11.2 µM.
With `COc1ccc2c(c1)C(=O)[C@@H](O)[C@H](c1ccc(OC)c(Br)c1)O2`, the “activity change, negative = inhibition” value was inactive: -38.9%.
